Reference: PubChem BioAssay AID624296 (National Center for Advancing Translational Sciences (NCATS), 2012)
Hit rate of the full screen: of about 350,000 compounds, about 9,900 (2.8%) were called active. Inconclusive means that the source gave no clear call. Such entries were picked first, then a sample of the others. Calls come from the whole dose curve; as a rule, active = well fitted activation curve with a large enough effect; inconclusive = small, poorly fitted or top-dose-only effect; inactive = no such curve, though single readings can be large or run the other way. Potencies of inconclusive entries are left out as doubtful fits.

Experiment: A quantitative high throughput screen for small molecules that induce DNA re-replication in MCF 10a normal breast cells. For activity, positive = re-replication: % of control where 0% means no effect. Note: nearly all actives have a fitted effect of over 50% in size.
Conditions: MCF 10A DNA re-replication, Hoechst nuclear intensity, 48 h; activity, positive = re-replication: at 46.1 µM (top of the series)
Potency is the fitted concentration of half-maximal effect; tags give direction and shape of the fitted curve.

| Compound | activity, positive = re-replication | Potency |
| --- | --- | --- |
| Cc1ccc(-n2cccn2)c(CN2CCCC(C(=O)c3ccc4c(c3)OCO4)C2)c1 (stereo not given) | inactive: 19.4% | – |
| Fc1ccc(CNc2ncnc3cc(Cl)ccc23)cc1 | – | inconclusive [activator, partial curve, poor fit] |
| COc1ccc(C2Oc3ccccc3C3=C2C(c2cccs2)n2ncnc2N3)cc1 (stereo not given) | – | inconclusive [activator, partial curve, poor fit] |
| Cc1ccc(-c2nnn(CC(=O)NC(=O)NC3CCCCC3)n2)cc1 | – | inconclusive [activator, single point] |
| CCn1c(=O)c2c3c(sc2n2cnnc12)CCC3 | inactive: -1.4% | – |
| CC1Cc2cccc3ccc(=O)n(c23)C1 (stereo not given) | inactive: 3.52% | – |
| N=c1n(CCO)c2ccccc2n1Cc1ccc(Cl)cc1 | inactive: 0.445% | – |
| CC1CCN(CCCNC(=O)c2ccc(CS(=O)(=O)Cc3ccc(Cl)cc3)o2)CC1 | inactive: 1.92% | – |
| COc1cc(NC(=O)CN2CCN(S(=O)(=O)c3ccc(C(C)C)cc3)CC2)cc(OC)c1 | inactive: 4.43% | – |
| O=C(CCCc1nc(-c2ccccc2)no1)Nc1cccnc1 | inactive: 0.445% | – |
| CCOc1ccc2oc(C(=O)N3CCN(c4ccccc4OCC)CC3)c(C)c2c1 | – | inconclusive [activator, single point] |
| O=C(Nc1ccc(-c2csnn2)cc1)C1CC1 | – | inconclusive [activator, single point] |
| Cc1ccc(NC(=S)N(CCN(C)C)C(C)c2cccnc2)c(C)c1 (stereo not given) | – | inconclusive [activator, partial curve, poor fit] |
| Fc1cccc2sc(Nc3nc4c(F)cccc4s3)nc12 | inactive: 11.2% | – |
| Cc1ccc(S(=O)(=O)N2CCCCC2)cc1C(=O)OC(C)C(=O)NC1CCCCC1C (stereo not given) | inactive: 0.127% | – |
| Clc1ccc(-c2nc(Cc3ccccc3Cl)no2)cc1 | – | inconclusive [activator, single point] |
| COc1ccccc1NC(=S)NC(=O)/C=C/c1cccs1 | inactive: 24.7% | – |
| O=C(Nc1cccc(NC(=O)C2CCCO2)c1)c1ccco1 (stereo not given) | inactive: -1.71% | – |
| CC(C)(C)c1ccc(OCCCC(=O)NNC(=O)c2ccccc2O)cc1 | – | inconclusive [activator, full curve, poor fit] |
| NC(=O)c1ccccc1N/C=C/C(=O)c1ccc(Cl)cc1 | – | inconclusive [activator, single point] |
| O=S(=O)(Nc1ccncc1Cl)c1cc(Cl)ccc1Cl | – | inconclusive [activator, single point] |
| COc1ccc(C)cc1NC(=O)C(Sc1nnc(-c2ccncc2)n1-c1ccc(Cl)cc1)c1ccccc1 (stereo not given) | inactive: 21.1% | – |
| N#CCCN(C(=O)CN1CCN(S(=O)(=O)c2ccc(Cl)s2)CC1)c1ccc(F)cc1 | inactive: 3.33% | – |
| CCOc1ccc(OCc2ccc(C(=O)NN=Cc3ccc[nH]3)cc2)cc1 | – | inconclusive [activator, partial curve] |
| O=C(NC1CCCc2ccccc21)N[C@@H](Cc1ccccc1)C(=O)O (stereo not given in full) | – | inconclusive [activator, single point] |

| Compound | activity, positive = re-replication | Potency |
| --- | --- | --- |
| Cc1ccc(CN(c2ccc(C(=O)N3CCCC3)cc2)S(C)(=O)=O)cc1 | inactive: -5.35% | – |
| Cc1ccc(OCCN2C(=O)c3ccccc3C2=O)c([N+](=O)[O-])c1 | inactive: 8.92% | – |
| COc1cccc(C(=O)Nc2ccccc2C(=O)NC2CC2)c1 | inactive: -29% | – |
| CCOC(=O)c1cnc2c(c(C)nn2CC)c1Cl | – | inconclusive [activator, partial curve, poor fit] |
| O=C(OC1CCN(c2ncc(C(F)(F)F)cc2Cl)CC1)c1ccc(Cl)cc1 | inactive: 0.0361% | – |
| O=S(=O)([N-]c1nc2ccccc2nc1-[n+]1ccc(Cc2ccccc2)cc1)c1ccc(Br)s1 | – | active: 9.2 µM |
| Cc1nc2c(N=Nc3ccccc3F)c(N)nn2c(N)c1C#N | inactive: -2.12% | – |
| COC(=O)/C=C1/S/C(=N/NC(=O)c2ccccc2OC)NC1=O | inactive: -3.79% | – |
| COc1cc2c(cc1NC(=S)NC(=O)/C=C/c1ccco1)oc1ccccc12 | – | inconclusive [activator, partial curve, poor fit] |
| CC(=O)Oc1ccc(N2C(=O)C3C4C=CC(O4)C3C2=O)cc1 (stereo not given) | inactive: -0.464% | – |
| Clc1ccccc1C1=Nn2c(nnc2-c2ccncc2)SC1 | inactive: 6.57% | – |
| Cc1nc2ccccc2cc1OCc1ccc(Cl)cc1 | – | inconclusive [activator, single point] |
| O=C(O)Cc1csc(-c2ccc(Cl)cc2)n1 | inactive: -0.158% | – |
| CCN(Cc1ccccc1)C(=O)c1ccc(NC(=O)c2ccc(OC)cc2)cc1 | – | inconclusive [activator, partial curve, poor fit] |
| c1ccc(-c2ncc(CN3CCN(c4ccccn4)CC3)[nH]2)cc1 | inactive: 8.48% | – |
| CCN1CCN(C(=O)c2ccc(CN(c3ccccc3)S(=O)(=O)c3ccccc3)cc2)CC1 | – | inconclusive [activator, single point] |
| CCN(CC)CCn1c(-c2ccccc2)nc(=S)c2c1CC(C)(C)OC2 | – | inconclusive [activator, partial curve, poor fit] |
| CN1CCN(CC(=O)C23CC4CC(CC(C4)C2)C3)CC1 | – | inconclusive [activator, full curve] |
| O=c1[nH]c(C2CC2)nc2sc3c(c12)CCCC3 | inactive: -10.6% | – |
| CSc1ccc(OC2CCCCC2NS(=O)(=O)c2ccc(Cl)cc2)cc1 (stereo not given) | – | inconclusive [activator, single point] |
| CC1=C(C(=O)OCc2ccccc2)C(c2ccc(C(C)(C)C)cc2)NC(=O)N1CCCCCC(=O)O (stereo not given) | – | inconclusive [activator, single point] |
| O=C1CCCC2=C1C(c1ccncc1)c1c(nc(SCc3ccccc3Cl)[nH]c1=O)N2 (stereo not given) | – | inconclusive [activator, single point] |
| Cc1nn(-c2ccc(F)cc2)c(C)c1CN1CCN(CCc2ccccc2)C(CCO)C1 (stereo not given) | – | inconclusive [activator, partial curve, poor fit] |
| O=C(c1cc2nc(-c3ccccc3)cc(-c3ccccc3)n2n1)N1CCN(C(=O)c2ccco2)CC1 | – | inconclusive [activator, single point] |
| c1ccc(CNc2nc3ccccc3[nH]2)cc1 | – | inconclusive [activator, single point] |

| Compound | activity, positive = re-replication | Potency |
| --- | --- | --- |
| Cc1ccc(-n2nnnc2SCC(=O)Nc2ccccc2-c2ccccc2)cc1C | – | inconclusive [activator, partial curve, poor fit] |
| CN(Cc1ccccc1)CC(O)COc1ccc(CNCc2cccnc2)cc1 (stereo not given) | – | inconclusive [activator, full curve, poor fit] |
| Cc1ccc(OCC(=O)c2ccc(Cl)s2)c([N+](=O)[O-])n1 | – | inconclusive [activator, single point] |
| O=C(NCC1OCCc2ccccc21)c1ccc(NC(=O)c2ccc(Cl)cc2Cl)cc1 (stereo not given) | – | inconclusive [activator, single point] |
| Nc1c2c(nn1-c1ccccc1)CCC2 | – | inconclusive [activator, full curve, poor fit] |
| Cc1cc(C(=O)Nc2ccccc2C(=O)N2CCCCC2)ccc1[N+](=O)[O-] | – | inconclusive [activator, partial curve, poor fit] |
| O=C1Oc2ccccc2C(=O)/C1=C\N1CCN(c2ccccc2)CC1 | – | inconclusive [activator, partial curve, poor fit] |
| COc1cc(Br)cc(/C=N/c2ncn[nH]2)c1O | – | inconclusive [activator, partial curve, poor fit] |
| O=C(c1ccc(Cl)cc1)N1CCN(CCc2ccccn2)CC1 | inactive: 12% | – |
| COc1ccc(NC(=O)c2ccc(-n3cccn3)c([N+](=O)[O-])c2)cc1 | inactive: 2.51% | – |
| CCOc1ccc(/C=N/Nc2ccccn2)cc1 | inactive: 0.435% | – |
| Cc1c(C)c2ccc(OCC(=O)Nc3ccccn3)cc2oc1=O | inactive: -6.56% | – |
| COc1ccc(C2(OC)Oc3cc(OC)ccc3C(=O)C2(O)OC)cc1 (stereo not given) | – | inconclusive [activator, single point] |
| CC1CCCN(C(=O)CNC(=O)c2cccs2)C1 (stereo not given) | inactive: 3.08% | – |
| CC(C)n1c(=O)c2c(O)cc(=O)oc2c2ccccc21 | – | inconclusive [activator, partial curve, poor fit] |
| Cc1nc([N+](=O)[O-])c(NCCO)n1Cc1ccccc1 | inactive: -6.31% | – |
| Cc1nn(Cc2cccc(F)c2)c(C)c1NC(=O)c1ccc(COc2ccccc2Cl)cc1 | – | inconclusive [activator, single point] |
| c1ccc(Cn2c3ccccc3c3nnc(SCCN4CCCCC4)nc32)cc1 | inactive: 1.56% | – |
| COC(=O)c1ccc(NC(=S)NC2CCCCC2)cc1 | – | inconclusive [activator, single point] |
| NC(=O)CC(NC(=O)c1ccc(Br)cc1)c1ccc(NC2CCCCCC2)c([N+](=O)[O-])c1 (stereo not given) | – | inconclusive [activator, full curve] |
| O=C(Nc1nc(-c2ccc(Cl)cc2)cs1)C1=COCCO1 | – | inconclusive [activator, full curve, poor fit] |
| CCCCn1c(SCC(=O)N2CCCc3ccccc32)nc2c1c(=O)n(C)c(=O)n2C | inactive: 5.14% | – |
| COc1ccccc1NC(=O)CN1CCN(CC(=O)Nc2ccc(Cl)c(C(F)(F)F)c2)CC1 | – | inconclusive [activator, single point] |
| O=C1c2ccccc2C(=O)N1CC(O)Cn1nnc2ccccc21 (stereo not given) | inactive: 8.27% | – |
| CC1(C(=O)OCC(=O)Nc2cc(S(=O)(=O)N3CCOCC3)ccc2Cl)CC1(Cl)Cl (stereo not given) | inactive: 11% | – |
